# Measurements as given in PubChem BioAssay AID2546 (National Center for Advancing Translational Sciences (NCATS), 2010).
# The whole screen tested about 310,000 compounds, of which about 11,000 (3.5%) were called active. The shares of active, inactive and inconclusive entries below differ from those in the screen. Calls come from the whole dose curve; as a rule, active = well fitted inhibition curve with a large enough effect; inconclusive = small, poorly fitted or top-dose-only effect, or effect the other way; inactive = flat fitted curve, though single readings scatter. No potency is given beside an inconclusive call; the fits are too rough.
# Test: VP16 counterscreen qHTS for inhibitors of ROR gamma transcriptional activity;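 note: Gal4-VP16 expression switched on by copper sulfate through the metallothionein promoter; nearly all actives have a fitted effect of over 50% in size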
# Settings: Drosophila S2 Gal4-VP16 UAS-luciferase, luminescence, 20 h; series mostly up to 53.6 µM
# Potency is the fitted concentration of half-maximal effect; tags give direction and shape of the fitted curve.
row,SMILES,Potency
1,Cc1ccccc1/C=C/c1nc2ccccc2c(=O)[nH]1,"inconclusive [inhibitor, full curve, poor fit]"
2,COc1cc(/C=C/c2ccc3cccc(O)c3n2)c(Br)cc1O,"inconclusive [inhibitor, full curve]"
3,COc1cccc(Cn2c(=O)c(CCc3ccccc3)nc3cncnc32)c1,inactive
4,O=C(COc1ccc2c(c1)OCO2)Nc1nccs1,"inconclusive [inhibitor, single point]"
5,C/C(=N\Nc1ccccc1)c1cc2ccccc2oc1=O,"inconclusive [activator, partial curve, poor fit]"
6,CCO/C=C/C(O)(CNC(=O)c1ccc(C(C)(C)C)cc1)C(F)(F)F (stereo not given),active: 20 µM
7,C[C@]12CCC3c4ccc(O)cc4CCC3[C@@H]1CCC2=O (stereo not given in full),inactive
8,Cc1c(C(=O)N2CCOCC2)oc2ccc(S(=O)(=O)N3CCCC3)cc12,"inconclusive [activator, full curve, poor fit]"
9,COC(=O)C1=C(C)N(Cc2ccc(OC)cc2)C(=O)C1,"inconclusive [inhibitor, partial curve]"
10,O=C(/C=C/c1cccc(OCc2ccccc2)c1)c1cccnc1,"inconclusive [inhibitor, single point]"
11,NS(=O)(=O)c1ccc(NS(=O)(=O)c2ccc(C3CNC(=O)C3)cc2)cc1 (stereo not given),"inconclusive [inhibitor, partial curve]"
12,O=C(Oc1cccc2cccnc12)c1cccc(-n2cnnn2)c1,inactive
13,CC(CCc1ccccc1)NC(=O)c1ccc(NC(=O)c2ccccc2)cc1 (stereo not given),"inconclusive [inhibitor, single point]"
14,N=c1c2c(n(Cc3ccccc3)c3c1CCC3)CCC2,"inconclusive [inhibitor, single point]"
15,CC(C)c1onc(C(=O)Nc2ccc3c(c2)OCO3)c1[N+](=O)[O-],"inconclusive [inhibitor, single point]"
16,CCN(CC)S(=O)(=O)c1ccc(C)c(NC(=S)N2CCN(C/C=C/c3ccccc3)CC2)c1,"inconclusive [inhibitor, single point]"
17,COc1ccc(NC(=O)c2cc(-c3ccncc3)nc3ccc(Br)cc23)cc1OC,active: 20 µM
18,CCOc1ccc(-c2c(C(=O)N/N=C/c3ccsc3)nnn2-c2nonc2N)cc1,"inconclusive [inhibitor, single point]"
19,COc1ccc(C2Nc3ccccc3C(=O)N2Cc2ccco2)cc1COc1ccc(F)cc1 (stereo not given),"inconclusive [inhibitor, single point]"
20,O=C(N/N=C/c1ccc(Br)o1)c1cncc(Br)c1,"inconclusive [inhibitor, single point]"
21,Cc1ccc(N=Cc2c(C)[nH]n(-c3nc4ccccc4[nH]3)c2=O)cc1,active: 11.2 µM
22,c1ccc(Nc2nc(-c3cccnc3)cs2)nc1,"inconclusive [inhibitor, single point]"
23,Cc1ccc(NC(=S)N(CCN(C)C)C(C)c2ccco2)cc1C (stereo not given),"inconclusive [inhibitor, single point]"
24,CCOC(=O)C1(CCOC)CCN(Cc2ccc(C(=O)OC)cc2)CC1,"inconclusive [inhibitor, single point]"

row,SMILES,Potency
1,O=C(Nc1nnc(-c2ccncc2)o1)c1ccccc1,active: 5.01 µM
2,CCCn1c(NC(=O)c2ccccc2)nc2ccccc21,active: 1.78 µM
3,CN(CCc1ccccn1)C(=O)CCC1CCCN(C(=O)c2n[nH]c3c2CCCC3)C1 (stereo not given),inactive
4,O=C(NC(=S)Nc1ccccn1)c1ccc([N+](=O)[O-])cc1,active: 11.2 µM
5,CN1c2ccccc2C2(C)CCCC3=Cc4cc([N+](=O)[O-])cc([N+](=O)[O-])c4OC312 (stereo not given),"inconclusive [activator, single point]"
6,Cc1cc(N2CCN(C)CC2)nc2ccc(NC(=S)NCc3cccs3)cc12,inactive
7,O=c1cc(-c2ccccc2O)oc2ccc3ccccc3c12,active: 7.08 µM
8,Cc1ccc(NC(=O)CN2C(=O)S/C(=C\c3ccc(-c4cccc(C(=O)O)c4C)o3)C2=O)cc1C,inactive
9,O=C(COc1cccc2ccccc12)NNC(=O)c1cnccn1,"inconclusive [inhibitor, single point]"
10,CCCCCC/C=N/Nc1nnc(Cc2ccc(OC)c(OC)c2)c(=O)[nH]1,"inconclusive [inhibitor, single point]"
11,COc1ccc(C(=O)/C=C/c2ccc(OC(=O)c3cc(OC)c(OC)c(OC)c3)cc2)cc1,active: 7.08 µM
12,CC(NC(=S)Nc1c(Cl)cccc1OC(F)F)C(C)(C)C (stereo not given),active: 11.2 µM
13,Cc1ccc2occ(C(=O)c3ccco3)c(=O)c2c1,"inconclusive [activator, single point]"
14,COc1ccc(C)cc1-n1nnnc1SCC(=O)N1CCC(C(=O)Nc2nccs2)CC1,"inconclusive [inhibitor, partial curve]"
15,COCCCNC(=S)NNC(=O)c1ccccc1Br,inactive
16,CCC(C)n1c(/C=C/c2ccccc2)nc2ccccc21 (stereo not given),active: 12.6 µM
17,COc1ccc(C=C2C(=O)c3ccccc3C2=O)cc1O,"inconclusive [inhibitor, single point]"
18,CCOC(=O)N1CCC(NC(=O)c2cc(C(=O)NCc3cccc(Cl)c3)ccc2CO)CC1,"inconclusive [inhibitor, single point]"
19,C/C(=N\S(=O)(=O)c1ccc(C)cc1)NC(=S)Nc1ccc(C)cc1,"inconclusive [inhibitor, partial curve]"
20,O=C(CNc1ccc(Cl)cc1)NNC(=S)NCc1ccccc1,"inconclusive [inhibitor, single point]"
21,CN(C(=O)NC(=O)C1=C(N2CCOCC2)/C(=C/c2ccccc2)CC1)S(C)(=O)=O,"inconclusive [inhibitor, single point]"
22,COc1ccc(NCc2ccc([N+](=O)[O-])s2)c(OC)c1,active: 11.2 µM
23,COc1ccc(NC(=S)NCc2ccccn2)cc1OC,"inconclusive [inhibitor, single point]"
24,Cc1ccc(N2C(S)=C(C#N)C(=O)NC23CCCCC3)cc1,"inconclusive [inhibitor, single point]"

row,SMILES,Potency
1,Cc1ccc(C(C[N+](=O)[O-])Sc2ccc(N)cc2)cc1 (stereo not given),active: 5.62 µM
2,Cc1onc(-c2c(Cl)cccc2Cl)c1C(=O)Nc1ccc(Cl)cn1,"inconclusive [inhibitor, single point]"
3,COc1cc(C(=O)Nc2c(-c3ccccn3)c(=O)c3ccccc3n2C)cc(OC)c1OC,inactive
4,Cc1cc(NS(=O)(=O)c2ccc(NC(=S)NC(=O)c3ccc(C(C)(C)C)cc3)cc2)no1,"inconclusive [inhibitor, single point]"
5,O=C1/C(=N\S(=O)(=O)c2cccs2)C([n+]2ccccc2)=C([O-])c2ccccc21,"inconclusive [inhibitor, single point]"
6,CCc1c(C)[nH]n(-c2nc(-c3cccc([N+](=O)[O-])c3)cs2)c1=O,"inconclusive [inhibitor, single point]"
7,CC(C)c1ccc(NC(=S)NCc2ccc3c(c2)OCO3)cc1,"inconclusive [inhibitor, partial curve]"
8,CC(=O)c1ccc(N=Nc2ccc(C)cc2)cc1,"inconclusive [inhibitor, single point]"
9,COc1ccc(NC(=O)c2ccc(NC(=O)CCS(=O)(=O)c3cccs3)cc2)cc1,"inconclusive [inhibitor, full curve, poor fit]"
10,Fc1ccc(C2CCCN2Cc2nc(Cc3ccccc3F)no2)cc1 (stereo not given),"inconclusive [inhibitor, single point]"
11,O=C1CSC(c2ccncc2)N1Cc1ccco1 (stereo not given),inactive
12,Cc1ccc(N2CC(C)Cn3c2nc2c3c(=O)n(CC(=O)OCc3ccccc3)c(=O)n2C)cc1C (stereo not given),inactive
13,COc1ccc(C/C(N)=N/OC(=O)C(c2ccccc2)c2ccccc2)cc1OC,"inconclusive [inhibitor, partial curve]"
14,COc1cccc(/C=N/Nc2cc(Cl)nc(C)n2)c1O,active: 2.82 µM
15,Cc1cccc(C(=O)NNC(=S)NC(=O)c2cccs2)c1,"inconclusive [inhibitor, partial curve]"
16,CC(=O)N(C)c1ccc(N=Nc2c(C)[nH]n(C(N)=S)c2=O)cc1,active: 3.16 µM
17,COc1cccc(NC(=S)N2CCn3c(nc4ccccc43)C2)c1,"inconclusive [activator, single point]"
18,CC1CCN(c2c(NCc3ccc(C(=O)N(C)C4CCCCC4)cc3)c(=O)c2=O)CC1,inactive
19,COc1ccc(C)cc1-n1nnnc1SC/C(O)=C(\C#N)c1nc2ccccc2[nH]1,"inconclusive [inhibitor, single point]"
20,O=C(CSc1nnc2scc(-c3ccccc3)n12)Nc1nsc(-c2ccccc2)n1,"inconclusive [inhibitor, single point]"
21,COc1ccc(Cl)cc1NC(=O)CSC1=NN2CCCC(=O)N=C2S1,"inconclusive [inhibitor, partial curve]"
22,O=C(Nc1cccc(C(F)(F)F)c1)Nc1ccc(N2CCCC2)c(S(=O)(=O)Nc2ccccc2Cl)c1,active: 11.2 µM
